Measured values reported in paper PMC12650729 (Biology, 2025).

Experiments:
CV-A9 3C^pro = assay: FRET-based protease assay, CV-A9 3C protease; assay type: biochemical; conditions: pre-incubated at 25 °C for 30 min
Method: (§1) The 3C protease of EV-A71 (GenBank: KP861243.1) was also expressed by a recombinant plasmid constructed by us using the same method.
Based on the cleavage activities of enterovirus 2A and 3C proteases, the fluorescence enhancement due to corresponding peptide cleavage was monitored at 538 nm with excitation at 355 nm by a Synergy H1 microplate reader (BioTek, Norcross, GA, USA). Kinetic measurements for the proteases were performed in a 50 mM MES buffer (pH 6.5) containing different concentrations of fluorescent peptides (FRET-1: Dabcyl-[…]-Edans for CV-A9 and CV-B3 3C^pro; FRET-2: Dabcyl-[…] -Edans for CV-A9 2A^pro; FRET-3: Dabcyl-[…] -Edans for EV-A71 3C^pro). To measure the inhibitory effects of the drugs on protease activity, each drug was separately pretreated with the enzyme for 30 min, and the cleavage of the substrate peptide was monitored by the Synergy H1 microplate reader (BioTek, USA).

EV-A71 3C^pro = assay: FRET-based protease assay, EV-A71 3C protease
Method: as §1
(§2) Based on the cleavage activities of enterovirus 2A and 3C proteases, the fluorescence enhancement due to corresponding peptide cleavage was monitored at 538 nm with excitation at 355 nm by a Synergy H1 microplate reader (BioTek, Norcross, GA, USA). Kinetic measurements for the proteases were performed in a 50 mM MES buffer (pH 6.5) containing different concentrations of fluorescent peptides (FRET-1: Dabcyl-[…]-Edans for CV-A9 and CV-B3 3C^pro; FRET-2: Dabcyl-[…]-Edans for CV-A9 2A^pro; FRET-3: Dabcyl-[…]-Edans for EV-A71 3C^pro). To measure the inhibitory effects of the drugs on protease activity, each drug was separately pretreated with the enzyme for 30 min, and the cleavage of the substrate peptide was monitored by the Synergy H1 microplate reader (BioTek, USA).

CV-B3 3C^pro = CV-B3 3C^pro (Coxsackievirus B3, UniProt P03313); assay: FRET-based protease assay, CV-B3 3C protease; conditions: 1 mM
Method: as §1, §2

`O=C(O[C@@H]1Cc2c(O)cc(O)cc2O[C@@H]1c1ccc(O)c(O)c1)c1cc(O)c(O)c(O)c1` [(−)-epicatechin gallate] was tested, and the IC50 (CV-A9 3C^pro) was 29.5 µM and the “inhibitory effect on 3C^pro of EV-A71” value (EV-A71 3C^pro) was “no activity”.

`COc1cc(-c2oc3cc(O)cc(O)c3c(=O)c2O)ccc1O` [isorhamnetin] was tested, and the “inhibitory effect on 3C^pro of EV-A71” value (EV-A71 3C^pro) was “favorable inhibitory effects”.

`COc1cc(O)c2c(=O)cc(-c3ccc(O)c(OC)c3)oc2c1` [velutin] was tested, and the “inhibition of CV-B3 3C^pro protease activity” value (CV-B3 3C^pro) was “almost impossible for the protease to cleave the substrate peptide” and the “inhibitory effect on 3C^pro of EV-A71” value (EV-A71 3C^pro) was “favorable inhibitory effects”.
